Data taken from PubChem BioAssay AID651820 (National Center for Advancing Translational Sciences (NCATS), 2012).
About 12,000 (3.5%) of roughly 340,000 compounds were called active. Inconclusive means that the source gave no clear call. Such entries were picked first, then a sample of the others. The call rests on the fitted dose curve; in most records, active means well fitted inhibition curve with a large enough effect; inconclusive means small, poorly fitted or top-dose-only effect, or another doubt; inactive means no such curve, though single readings can be large or run the other way. Potencies of inconclusive entries are left out as doubtful fits. Where a structure was tested more than once in an assay, its records may differ in their call.

Test: qHTS Assay for Inhibitors of Hepatitis C Virus (HCV)
Details: Huh7.5.1 HCVcc-Cre (HCVcc is cell-culture hepatitis C virus) infection, luciferase reporter, 44 h; activity change, negative = inhibition: at 41.8 µM (top of the series) unless noted
In short: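 Whole-lifecycle infectious HCVcc-Cre system; cells 1,000/well, compound then virus (~0.5 moi) added 4 h after plating, 44 h culture. Luciferase read 15 sec following 15 min substrate incubation, room temp.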
On the % scale 0 is the no-effect control and ±100 the full control effect; potency means the concentration at half of the fitted maximal effect; tags describe the fitted curve by direction and shape.

Question: For C/C(=N/NC(=O)c1cccc(N2CCCC2=O)c1)c1ccc(Br)cc1, which Potency is on record?
Answer: inactive

Question: Which Potency does the source give for c1ccc(CCNc2ccc3c(c2)Cc2ccccc2-3)nc1 here?
Answer: inactive

Question: With O=C(NC1CCCCC1)N1CCN(C2CCCCC2)CC1 as the compound, how does the Potency read?
Answer: inconclusive [inhibitor, full curve, poor fit]

Question: For CCOC(=O)N/N=C\c1sccc1C, which Potency is on record?
Answer: inactive

Question: With CC(C)c1cc(C(=O)NC2CCCCC2)no1 as the compound, how does the Potency read?
Answer: inactive

Question: For CCN1CCN(CCCOc2ccc(-c3ccccc3)cc2)CC1, which Potency is on record?
Answer: active: 2.82 µM

Question: For COCCCNC(=O)/C(C#N)=C/c1c(N2CCN(c3cccc(Cl)c3)CC2)nc2c(C)cccn2c1=O, which Potency is on record?
Answer: inconclusive [inhibitor, single point]

Question: Which Potency does the source give for CCOc1ccccc1-c1nc(-c2ccc(NC(=O)Cc3ccc(OC)cc3)cc2)no1 here?
Answer: inconclusive [inhibitor, full curve]

Question: With COc1c(C)cc(C(=O)C2CCCN(C(=O)c3cc(C)n(C)n3)C2)cc1C (configuration not stated) as the compound, how does the Potency read?
Answer: inconclusive [inhibitor, single point]

Question: For CC(C)(O)C#Cc1ccc(C(=O)Nc2ccc3c(c2)OCO3)s1, which Potency is on record?
Answer: inconclusive [inhibitor, partial curve]

Question: With Cc1ccc(C(=O)NCc2ccco2)cc1[N+](=O)[O-] as the compound, how does the Potency read?
Answer: inactive

Question: Which Potency does the source give for O=C(NN=C1CCCC1)c1ccn[nH]1 here?
Answer: inactive

Question: Which Potency does the source give for CN1c2ccc(C=O)c3c(C=O)ccc(c23)N(C)C1(C)C here?
Answer: inconclusive [inhibitor, partial curve]

Question: Which Potency does the source give for Cc1cc(C)cc(N2C(=O)CN(Cc3ccccc3)C2=S)c1 here?
Answer: inactive

Question: With Cc1cc(C)nc(N2CCCC(C(=O)NC(C)CCc3ccco3)C2)n1 (configuration not stated) as the compound, how does the Potency read?
Answer: inconclusive [inhibitor, full curve, poor fit]

Question: For COc1cc2c(cc1OC)C1=NC(=O)CN1C(SCc1ccccc1C)=N2, which Potency is on record?
Answer: inconclusive [inhibitor, partial curve]

Question: For CS(=O)(=O)N(CC(N)=O)c1ccc(F)c(Cl)c1, which Potency is on record?
Answer: inactive

Question: Which Potency does the source give for Cc1ccc(-n2nc3c(=O)n(CCCC(=O)NCC(C)c4ccccc4)nc(C)c3c2C)cc1 (configuration not stated) here?
Answer: active: 22.4 µM

Question: With NC(=S)c1cn(C2OC(CO)C(O)C2O)c2ncnc(N)c12 (configuration not stated) as the compound, how does the Potency read?
Answer: active: 0.282 µM

Question: With COc1ccc(C2(C)NC(=O)N(CC(=O)Nc3ccc(-c4nc5ccc(C)cc5s4)cc3)C2=O)cc1 (configuration not stated) as the compound, how does the Potency read?
Answer: inconclusive [inhibitor, partial curve]

Question: For COc1ccc(NC(=O)CSc2cc(C)ccc2C)cn1, which Potency is on record?
Answer: inconclusive [inhibitor, single point]

Question: With C=CC[C@@H](Cc1ccc(F)cc1)C(=O)OC[C@@H]1CCCN1C(=O)[C@H](CC=C)CC(=O)N[C@H](CO)Cc1ccccc1 as the compound, how does the Potency read?
Answer: inconclusive [inhibitor, partial curve]

Question: Which Potency does the source give for C[N+](C)(C)CC1CCCc2ccccc2C1=O (configuration not stated) here?
Answer: active: 11.2 µM

Question: With Nc1nn2cc(-c3ccccc3)nc2c2ccccc12 as the compound, how does the Potency read?
Answer: inconclusive [inhibitor, single point]

Question: With O=C(NCc1ccccc1)C(c1ccccc1)N(Cc1ccc2c(c1)OCO2)C(=O)Cc1cccs1 (configuration not stated) as the compound, how does the Potency read?
Answer: inconclusive [inhibitor, partial curve]

Question: For Cc1ccc(C)c(C(=O)COC(=O)c2cc([N+](=O)[O-])ccc2NCCO)c1, which Potency is on record?
Answer: inconclusive [inhibitor, partial curve]

Question: For CCN(CC)CCN(C(=O)C1=COCCO1)c1nc2cc(C)cc(C)c2s1, which Potency is on record?
Answer: inconclusive [inhibitor, single point]

Question: Which Potency does the source give for CCCC/C(C)=N\NC(=O)CNS(=O)(=O)c1ccc([N+](=O)[O-])cc1 here?
Answer: inactive

Question: With COc1ccccc1CC(=O)Nc1cc(OC)c(NC(=O)c2ccccc2)cc1OC as the compound, how does the Potency read?
Answer: inconclusive [inhibitor, partial curve, poor fit]

Question: For Cc1cccc(C)c1NC(=O)CSc1nc2c([nH]1)c(=O)n(C)c(=O)n2C, which Potency is on record?
Answer: inconclusive [inhibitor, single point]

Question: With OCCSc1nc(-c2ccccc2)nc2ccc(F)cc12 as the compound, how does the Potency read?
Answer: inconclusive [inhibitor, partial curve]

Question: With COC(=O)c1c(C)[nH]c(C(=O)COc2ccc3ccc(=O)oc3c2)c1C as the compound, how does the Potency read?
Answer: inconclusive [inhibitor, partial curve]

Question: With COc1ccc(NC(=O)C2=C(C)NC(=S)NC2c2ccc(O)c(OC)c2)cc1 (configuration not stated) as the compound, how does the Potency read?
Answer: inactive

Question: For c1ccc2c(CCNc3ncnc4nc[nH]c34)c[nH]c2c1, which Potency is on record?
Answer: active: 7.08 µM

Question: Which Potency does the source give for COc1ccc2nc(-c3ccco3)c(-c3ccco3)nc2c1 here?
Answer: inconclusive [inhibitor, single point]

Question: Which Potency does the source give for O=C(NN=Cc1ccc(N(CCCl)CCCl)cc1Cl)c1cccnc1 here?
Answer: inconclusive [inhibitor, full curve]

Question: For CCOC(=O)C1CCCN(C2CC(=O)N(c3ccccc3)C2=O)C1 (configuration not stated), which Potency is on record?
Answer: inactive

Question: Which Potency does the source give for CC(NC(=O)c1ccccc1)C(=O)N/N=C/c1ccco1 (configuration not stated) here?
Answer: inactive

Question: For O=C(NC(=S)Nc1ccc(F)cc1)c1ccc2c(c1)OCCO2, which Potency is on record?
Answer: inconclusive [inhibitor, partial curve]

Question: Which Potency does the source give for COC(=O)c1[nH]c2ccccc2c1NC(=O)/C=C/c1ccc2c(c1)OCO2 here?
Answer: inactive

Question: For COc1ccccc1N1CCN(c2nc(-c3ccccc3)cc(C(F)(F)F)n2)CC1, which Potency is on record?
Answer: inconclusive [inhibitor, full curve, poor fit]

Question: With CN(N=Cc1cccc2cccnc12)c1ccc([N+](=O)[O-])cc1[N+](=O)[O-] as the compound, how does the Potency read?
Answer: inactive

Question: With CC(=O)c1ccc(N2CCN(CC(=O)Nc3ccc4c(c3)OCCO4)CC2)cc1 as the compound, how does the Potency read?
Answer: inconclusive [inhibitor, single point]

Question: Which Potency does the source give for Cc1cc(C)n(-c2nc3c(c(=O)[nH]c(=O)n3C)n2Cc2ccccc2)n1 here?
Answer: active: 2 µM

Question: With O=C(OCc1ccc(C(=O)c2ccccc2)cc1)c1cccc(-c2nnc(-c3ccccc3)o2)c1 as the compound, how does the Potency read?
Answer: active: 14.1 µM

Question: With Cc1ccc2oc(=O)cc(/C=C/c3ccccc3)c2c1 as the compound, how does the Potency read?
Answer: inconclusive [inhibitor, single point]

Question: For Cc1cc(-c2cn3ccccc3n2)c(C)n1-c1ccccc1, which Potency is on record?
Answer: inconclusive [inhibitor, single point]

Question: Which Potency does the source give for COc1ccc(N2CCN(C(=O)C3CCCN(S(=O)(=O)c4ccc(C)cc4)C3)CC2)cc1 (configuration not stated) here?
Answer: active: 2.51 µM

Question: With Nc1nc(NCc2ccccc2)nc(Nc2cccc(F)c2)c1[N+](=O)[O-] as the compound, how does the Potency read?
Answer: inconclusive [inhibitor, single point]

Question: For CC(C)NC(=O)N(C)C[C@H]1Oc2c(NC(=O)Nc3ccccc3)cccc2C(=O)N([C@H](C)CO)C[C@@H]1C, which Potency is on record?
Answer: inactive

Question: For Fc1cccc(Nc2ncnc3c2cnn3-c2ccccc2)c1, which Potency is on record?
Answer: inconclusive [inhibitor, partial curve]

Question: Which Potency does the source give for COc1ccc(N/N=C(\C#N)C(=N)N2CCCCC2)cc1 here?
Answer: inactive

Question: Which Potency does the source give for CCOc1cccc(C(=O)NC(=S)Nc2cccc(C)c2)c1 here?
Answer: inactive

Question: Which Potency does the source give for CCC(C)c1ccccc1OCCCCN1CCCC1 (configuration not stated) here?
Answer: inconclusive [inhibitor, single point]

Question: For COc1ccc(N(C(=O)c2snc(C(N)=O)c2N)C(C(=O)NC2CCCCC2)c2ccc(C)o2)cc1 (configuration not stated), which Potency is on record?
Answer: inconclusive [inhibitor, partial curve]

Question: With COc1ccc(C)cc1NC(=O)C(OC(=O)Cn1cnc2c1c(=O)n(C)c(=O)n2C)c1ccccc1 (configuration not stated) as the compound, how does the Potency read?
Answer: inconclusive [inhibitor, single point]

Question: With O=C(Nc1ccc(Cl)cc1)NC1CCCc2ccccc21 (configuration not stated) as the compound, how does the Potency read?
Answer: inconclusive [inhibitor, partial curve]

Question: Which Potency does the source give for Cc1ccc2[nH]cc(CCNC(=O)c3ccc([N+](=O)[O-])cc3)c2c1 here?
Answer: inconclusive [inhibitor, single point]

Question: For O=[N+]([O-])c1cc(C(F)(F)F)ccc1NCCc1c[nH]c2ccccc12, which Potency is on record?
Answer: inactive

Question: Which Potency does the source give for CCCc1nnc(NC(=O)C(C)N2C(=O)C3C4C=CC(C4)C3C2=O)s1 (configuration not stated) here?
Answer: inconclusive [inhibitor, single point]

Question: For COCCSc1ccccc1C(=O)Nc1ccc([N+](=O)[O-])cc1OC, which Potency is on record?
Answer: inconclusive [inhibitor, single point]

Question: Which Potency does the source give for COc1ccc(NS(=O)(=O)c2cc(C)ccc2NC(=O)c2cc(C)oc2C)cc1 here?
Answer: active: 12.6 µM

Question: With O=c1c2cc(-c3ccccc3)sc2ncn1-n1cccc1 as the compound, how does the Potency read?
Answer: inactive

Question: Which Potency does the source give for CCCCNC(=O)CSc1nc2n[nH]c(C)c2c(=N)n1-c1cccc(Cl)c1C here?
Answer: active: 15.8 µM

Question: For Cc1cc(OCC(=O)Nc2ccc(F)c(F)c2)nc(C(C)C)n1, which Potency is on record?
Answer: inactive

Question: With C/C=C/C(=O)N1c2ccc(C)cc2C(C)=CC1(C)C as the compound, how does the Potency read?
Answer: inactive

Question: Which Potency does the source give for O=C(Nc1ccc2c(c1)OCO2)c1nn(-c2ccccc2)c(=O)c2ccccc12 here?
Answer: inconclusive [inhibitor, single point]

Question: With COc1ccc(OC)c(C2=NOC(C(=O)N3CCN(c4ccccc4)CC3)C2)c1 (configuration not stated) as the compound, how does the Potency read?
Answer: inconclusive [inhibitor, single point]

Question: Which Potency does the source give for CCOC(=O)c1c(NC(=O)CN2C(=O)NC(C)(c3ccc(OC(F)F)cc3)C2=O)sc(C)c1C (configuration not stated) here?
Answer: inconclusive [inhibitor, partial curve, poor fit]

Question: With CCOC(=O)CSc1nc2sc(C)c(C)c2c(=O)n1N as the compound, how does the Potency read?
Answer: inconclusive [inhibitor, single point]

Question: Which Potency does the source give for Cc1cc(Cl)ccc1OCC(=O)Nc1ccccc1N1CCOCC1 here?
Answer: inconclusive [inhibitor, single point]

Question: Which activity change, negative = inhibition does the source give for CN(C)S(=O)(=O)c1cccc(NC(=O)CCc2nc3cc(S(=O)(=O)N4CCOCC4)ccc3n2C)c1 here?
Answer: inactive: 0.722% [at 8.37 µM]
